Laboratory results: paper PMC12820563, “FoxP3 forms a head-to-head dimer in vivo and stabilizes its multimerization on adjacent microsatellites”
The list shows a part of the results.

Each sequence was assayed against T1, MBP-FoxP1dN (Mus musculus, UniProt P58462 326-579) (assay: PD-seq (MBP pull-down with sequencing); 20 mM Tris-HCl pH 7.5, 100 mM NaCl, 1.5 mM MgCl2, 0.4 uM protein, 0.1 uM dsDNA library, 30 min, room temperature, amylose pull-down; high values mean tight binding). Details: protein: recombinant; tags: His6-MBP; chain copies: 2; dsDNA, one strand shown.
T1 sequence: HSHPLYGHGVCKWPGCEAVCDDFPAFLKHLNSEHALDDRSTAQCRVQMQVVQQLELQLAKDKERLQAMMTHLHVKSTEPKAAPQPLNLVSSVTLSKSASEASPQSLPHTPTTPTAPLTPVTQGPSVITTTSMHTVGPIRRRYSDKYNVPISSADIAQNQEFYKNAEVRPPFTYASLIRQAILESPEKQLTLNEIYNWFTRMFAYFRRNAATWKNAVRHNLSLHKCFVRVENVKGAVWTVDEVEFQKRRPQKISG
Method in brief: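 A fragment of mouse FoxP3 or FoxP1 without its N-terminus, carrying a His6-MBP tag and produced in E. coli, was combined at 0.4 µM with a 0.1 µM degenerate double-stranded DNA library filled in with Klenow. The mixture sat for 30 min at room temperature in Tris pH 7.5 buffer containing NaCl and MgCl2. Protein–DNA complexes were captured on amylose resin, washed three times, and the DNA was freed with proteinase K, barcoded by PCR and sequenced on Illumina. Binding is expressed as reads-per-million enrichment of pull-down over input, with replicates pooled.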

In order of falling binding signal:
1. GATGATTGTTCTCCCAGCTGATGAATTTATTTTCTCGAGTAAACAAATTTTCCTAATCTTTCTGTTCAAGCGCCATCTAC  1.77 RPM ratio (pull-down/input)
2. GATGATTGTTCTCCCAGCTGATGAATTAGTATTATCGAGTAAACAAATTTTCCTAATCTTTCTGTTCAAGCGCCATCTAC  1.75 RPM ratio (pull-down/input)
3. GATGATTGTTCTCCCAGCTGATGAATTTACTTTATCGAGTAAACAAATTTTCCTAATCTTTCTGTTCAAGCGCCATCTAC  1.46 RPM ratio (pull-down/input)
4. GATGATTGTTCTCCCAGCTGATGAATTTATGATATCGAGTAAACAAATTTTCCTAATCTTTCTGTTCAAGCGCCATCTAC  1.33 RPM ratio (pull-down/input)
5. GATGATTGTTCTCCCAGCTGATGAATTACAACCTTCGAGTAAACAAATTTTCCTAATCTTTCTGTTCAAGCGCCATCTAC  1.27 RPM ratio (pull-down/input)
6. GATGATTGTTCTCCCAGCTGATGAATTAATGCCATCGAGTAAACAAATTTTCCTAATCTTTCTGTTCAAGCGCCATCTAC  1.24 RPM ratio (pull-down/input)
7. GATGATTGTTCTCCCAGCTGATGAATTTACCTCATCGAGTAAACAAATTTTCCTAATCTTTCTGTTCAAGCGCCATCTAC  1.18 RPM ratio (pull-down/input)
8. GATGATTGTTCTCCCAGCTGATGAATTATCTGTTTCGAGTAAACAAATTTTCCTAATCTTTCTGTTCAAGCGCCATCTAC  1.18 RPM ratio (pull-down/input)
9. GATGATTGTTCTCCCAGCTGATGAATTATTATCTTCGAGTAAACAAATTTTCCTAATCTTTCTGTTCAAGCGCCATCTAC  1.17 RPM ratio (pull-down/input)
10. GATGATTGTTCTCCCAGCTGATGAATTTACCCTGTCGAGTAAACAAATTTTCCTAATCTTTCTGTTCAAGCGCCATCTAC  1.1 RPM ratio (pull-down/input)
11. GATGATTGTTCTCCCAGCTGATGAATTCGAAACATCGAGTAAACAAATTTTCCTAATCTTTCTGTTCAAGCGCCATCTAC  1.1 RPM ratio (pull-down/input)
12. GATGATTGTTCTCCCAGCTGATGAATTTAGCATATCGAGTAAACAAATTTTCCTAATCTTTCTGTTCAAGCGCCATCTAC  1.1 RPM ratio (pull-down/input)
13. GATGATTGTTCTCCCAGCTGATGAATTCGAGTTTTCGAGTAAACAAATTTTCCTAATCTTTCTGTTCAAGCGCCATCTAC  1.08 RPM ratio (pull-down/input)
14. GATGATTGTTCTCCCAGCTGATGAATTGTGGCCATCGAGTAAACAAATTTTCCTAATCTTTCTGTTCAAGCGCCATCTAC  1.08 RPM ratio (pull-down/input)
15. GATGATTGTTCTCCCAGCTGATGAATTAGTGTCTTCGAGTAAACAAATTTTCCTAATCTTTCTGTTCAAGCGCCATCTAC  1.06 RPM ratio (pull-down/input)
16. GATGATTGTTCTCCCAGCTGATGAATTTTTCTTTTCGAGTAAACAAATTTTCCTAATCTTTCTGTTCAAGCGCCATCTAC  1.04 RPM ratio (pull-down/input)
17. GATGATTGTTCTCCCAGCTGATGAATTTAACAACTCGAGTAAACAAATTTTCCTAATCTTTCTGTTCAAGCGCCATCTAC  1.02 RPM ratio (pull-down/input)
18. GATGATTGTTCTCCCAGCTGATGAATTGGGGCAATCGAGTAAACAAATTTTCCTAATCTTTCTGTTCAAGCGCCATCTAC  1.01 RPM ratio (pull-down/input)
19. GATGATTGTTCTCCCAGCTGATGAATTGAATGCCTCGAGTAAACAAATTTTCCTAATCTTTCTGTTCAAGCGCCATCTAC  1 RPM ratio (pull-down/input)
20. GATGATTGTTCTCCCAGCTGATGAATTGCTTAACTCGAGTAAACAAATTTTCCTAATCTTTCTGTTCAAGCGCCATCTAC  0.986 RPM ratio (pull-down/input)
21. GATGATTGTTCTCCCAGCTGATGAATTTGTAGACTCGAGTAAACAAATTTTCCTAATCTTTCTGTTCAAGCGCCATCTAC  0.985 RPM ratio (pull-down/input)
22. GATGATTGTTCTCCCAGCTGATGAATTGCCACAGTCGAGTAAACAAATTTTCCTAATCTTTCTGTTCAAGCGCCATCTAC  0.983 RPM ratio (pull-down/input)
23. GATGATTGTTCTCCCAGCTGATGAATTGAGAGAATCGAGTAAACAAATTTTCCTAATCTTTCTGTTCAAGCGCCATCTAC  0.971 RPM ratio (pull-down/input)
24. GATGATTGTTCTCCCAGCTGATGAATTCACACAGTCGAGTAAACAAATTTTCCTAATCTTTCTGTTCAAGCGCCATCTAC  0.96 RPM ratio (pull-down/input)
25. GATGATTGTTCTCCCAGCTGATGAATTGATCGTGTCGAGTAAACAAATTTTCCTAATCTTTCTGTTCAAGCGCCATCTAC  0.96 RPM ratio (pull-down/input)
26. GATGATTGTTCTCCCAGCTGATGAATTACTCCCGTCGAGTAAACAAATTTTCCTAATCTTTCTGTTCAAGCGCCATCTAC  0.957 RPM ratio (pull-down/input)
27. GATGATTGTTCTCCCAGCTGATGAATTGAGTTGCTCGAGTAAACAAATTTTCCTAATCTTTCTGTTCAAGCGCCATCTAC  0.953 RPM ratio (pull-down/input)
28. GATGATTGTTCTCCCAGCTGATGAATTTGCACGATCGAGTAAACAAATTTTCCTAATCTTTCTGTTCAAGCGCCATCTAC  0.952 RPM ratio (pull-down/input)
29. GATGATTGTTCTCCCAGCTGATGAATTAATCAAGTCGAGTAAACAAATTTTCCTAATCTTTCTGTTCAAGCGCCATCTAC  0.946 RPM ratio (pull-down/input)
30. GATGATTGTTCTCCCAGCTGATGAATTCTTTTAGTCGAGTAAACAAATTTTCCTAATCTTTCTGTTCAAGCGCCATCTAC  0.943 RPM ratio (pull-down/input)
31. GATGATTGTTCTCCCAGCTGATGAATTCATTGACTCGAGTAAACAAATTTTCCTAATCTTTCTGTTCAAGCGCCATCTAC  0.932 RPM ratio (pull-down/input)
32. GATGATTGTTCTCCCAGCTGATGAATTGTAGACGTCGAGTAAACAAATTTTCCTAATCTTTCTGTTCAAGCGCCATCTAC  0.93 RPM ratio (pull-down/input)
33. GATGATTGTTCTCCCAGCTGATGAATTTGGGCGTTCGAGTAAACAAATTTTCCTAATCTTTCTGTTCAAGCGCCATCTAC  0.922 RPM ratio (pull-down/input)
34. GATGATTGTTCTCCCAGCTGATGAATTAATAGGCTCGAGTAAACAAATTTTCCTAATCTTTCTGTTCAAGCGCCATCTAC  0.909 RPM ratio (pull-down/input)
35. GATGATTGTTCTCCCAGCTGATGAATTTAGAATCTCGAGTAAACAAATTTTCCTAATCTTTCTGTTCAAGCGCCATCTAC  0.905 RPM ratio (pull-down/input)
36. GATGATTGTTCTCCCAGCTGATGAATTTTCTCTCTCGAGTAAACAAATTTTCCTAATCTTTCTGTTCAAGCGCCATCTAC  0.904 RPM ratio (pull-down/input)
37. GATGATTGTTCTCCCAGCTGATGAATTTCTTACGTCGAGTAAACAAATTTTCCTAATCTTTCTGTTCAAGCGCCATCTAC  0.904 RPM ratio (pull-down/input)
38. GATGATTGTTCTCCCAGCTGATGAATTATAAGGTTCGAGTAAACAAATTTTCCTAATCTTTCTGTTCAAGCGCCATCTAC  0.895 RPM ratio (pull-down/input)
39. GATGATTGTTCTCCCAGCTGATGAATTCTTCCTATCGAGTAAACAAATTTTCCTAATCTTTCTGTTCAAGCGCCATCTAC  0.892 RPM ratio (pull-down/input)
40. GATGATTGTTCTCCCAGCTGATGAATTAAAACCGTCGAGTAAACAAATTTTCCTAATCTTTCTGTTCAAGCGCCATCTAC  0.89 RPM ratio (pull-down/input)
41. GATGATTGTTCTCCCAGCTGATGAATTTTAAAATTCGAGTAAACAAATTTTCCTAATCTTTCTGTTCAAGCGCCATCTAC  0.885 RPM ratio (pull-down/input)
42. GATGATTGTTCTCCCAGCTGATGAATTTAGACCCTCGAGTAAACAAATTTTCCTAATCTTTCTGTTCAAGCGCCATCTAC  0.884 RPM ratio (pull-down/input)
43. GATGATTGTTCTCCCAGCTGATGAATTCAACTCATCGAGTAAACAAATTTTCCTAATCTTTCTGTTCAAGCGCCATCTAC  0.88 RPM ratio (pull-down/input)
44. GATGATTGTTCTCCCAGCTGATGAATTCTGAGATTCGAGTAAACAAATTTTCCTAATCTTTCTGTTCAAGCGCCATCTAC  0.879 RPM ratio (pull-down/input)
45. GATGATTGTTCTCCCAGCTGATGAATTGAGCTCATCGAGTAAACAAATTTTCCTAATCTTTCTGTTCAAGCGCCATCTAC  0.874 RPM ratio (pull-down/input)
46. GATGATTGTTCTCCCAGCTGATGAATTGGCGCAGTCGAGTAAACAAATTTTCCTAATCTTTCTGTTCAAGCGCCATCTAC  0.871 RPM ratio (pull-down/input)
47. GATGATTGTTCTCCCAGCTGATGAATTTGCGAGGTCGAGTAAACAAATTTTCCTAATCTTTCTGTTCAAGCGCCATCTAC  0.867 RPM ratio (pull-down/input)
48. GATGATTGTTCTCCCAGCTGATGAATTTGAAACTTCGAGTAAACAAATTTTCCTAATCTTTCTGTTCAAGCGCCATCTAC  0.864 RPM ratio (pull-down/input)
49. GATGATTGTTCTCCCAGCTGATGAATTCAAGCGCTCGAGTAAACAAATTTTCCTAATCTTTCTGTTCAAGCGCCATCTAC  0.861 RPM ratio (pull-down/input)
50. GATGATTGTTCTCCCAGCTGATGAATTCTCATTCTCGAGTAAACAAATTTTCCTAATCTTTCTGTTCAAGCGCCATCTAC  0.831 RPM ratio (pull-down/input)
51. GATGATTGTTCTCCCAGCTGATGAATTCAGAATCTCGAGTAAACAAATTTTCCTAATCTTTCTGTTCAAGCGCCATCTAC  0.824 RPM ratio (pull-down/input)
52. GATGATTGTTCTCCCAGCTGATGAATTCCACTGATCGAGTAAACAAATTTTCCTAATCTTTCTGTTCAAGCGCCATCTAC  0.809 RPM ratio (pull-down/input)
53. GATGATTGTTCTCCCAGCTGATGAATTGGTAGGGTCGAGTAAACAAATTTTCCTAATCTTTCTGTTCAAGCGCCATCTAC  0.808 RPM ratio (pull-down/input)
54. GATGATTGTTCTCCCAGCTGATGAATTGGATTTCTCGAGTAAACAAATTTTCCTAATCTTTCTGTTCAAGCGCCATCTAC  0.806 RPM ratio (pull-down/input)
55. GATGATTGTTCTCCCAGCTGATGAATTCCTCTGGTCGAGTAAACAAATTTTCCTAATCTTTCTGTTCAAGCGCCATCTAC  0.803 RPM ratio (pull-down/input)
56. GATGATTGTTCTCCCAGCTGATGAATTCTGTCTGTCGAGTAAACAAATTTTCCTAATCTTTCTGTTCAAGCGCCATCTAC  0.801 RPM ratio (pull-down/input)
57. GATGATTGTTCTCCCAGCTGATGAATTCTCCGGTTCGAGTAAACAAATTTTCCTAATCTTTCTGTTCAAGCGCCATCTAC  0.8 RPM ratio (pull-down/input)
58. GATGATTGTTCTCCCAGCTGATGAATTTCAGCGGTCGAGTAAACAAATTTTCCTAATCTTTCTGTTCAAGCGCCATCTAC  0.794 RPM ratio (pull-down/input)
59. GATGATTGTTCTCCCAGCTGATGAATTTCGGGAGTCGAGTAAACAAATTTTCCTAATCTTTCTGTTCAAGCGCCATCTAC  0.782 RPM ratio (pull-down/input)
60. GATGATTGTTCTCCCAGCTGATGAATTTCGAGTCTCGAGTAAACAAATTTTCCTAATCTTTCTGTTCAAGCGCCATCTAC  0.779 RPM ratio (pull-down/input)
61. GATGATTGTTCTCCCAGCTGATGAATTTTAGACCTCGAGTAAACAAATTTTCCTAATCTTTCTGTTCAAGCGCCATCTAC  0.776 RPM ratio (pull-down/input)
62. GATGATTGTTCTCCCAGCTGATGAATTTAAGGGCTCGAGTAAACAAATTTTCCTAATCTTTCTGTTCAAGCGCCATCTAC  0.73 RPM ratio (pull-down/input)
63. GATGATTGTTCTCCCAGCTGATGAATTGGCCAGGTCGAGTAAACAAATTTTCCTAATCTTTCTGTTCAAGCGCCATCTAC  0.73 RPM ratio (pull-down/input)
